Measurements taken from patent US20210122814A1.

Target: all TGFβ1 LLCs in the LN229 cell-based activation assays (LTBP1-/LTBP3-, GARP- and LRRC33-proTGFβ1)
Test: cell-based or functional assay

- IC50, integrin-mediated activation, LN229 cells with CAGA12 reporter cells: 1.15 to 1.42 nM
B1: Ab6 (antibody)
heavy: EVQLVESGGGLVQPGGSLRLSCTASGFTFSSFSMDWVRQAPGKGLEWVSYISPSADTIYYADSVKGRFTISRDNAKNTLYLQMNSLRAEDTAVYYCARGVLDYGDMLMPWGQGTLVTVSSASTKGPSVFPLAPCSRSTSESTAALGCLVKDYFPEPVTVSWNSGALTSGVHTFPAVLQSSGLYSLSSVVTVPSSSLGTKTYTCNVDHKPSNTKVDKRV[… human IgG4 Fc with S228P (EU numbers) …]
light: DIQMTQSPSSLSASVGDRVTITCQASQDITNYLNWYQQKPGKAPKLLIYDASNLETGVPSRFSGSGSGTDFTFTISSLQPEDIATYYCQQADNHPPWTFGGGTKVEIKRTVAAPSVFIFPPSDEQLKSGTASVVCLLNNFYPREAKVQWKVDNALQSGNSQESVTEQDSKDSTYSLSSTLTLSKADYEKHKVYACEVTHQGLSSPVTKSFNRGEC
